Assay results as given in publication PMC4336329 (PLoS ONE, 2015).
The whole screen tested about 310,000 compounds, of which about 14,000 (4.5%) showed an effect of 50% or more. The effect is printed as a negative number. This is one part of the list.

Target: human ether-à-go-go-related gene (hERG) potassium channel (human, UniProt Q12809)
Assay: primary screen, population patch clamp on CHO cells stably expressing hERG
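Further: peak tail current of the secondary pulse compared with the same well before compound.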

Chain of human ether-à-go-go-related gene (hERG) potassium channel (Q12809 whole entry, looked up): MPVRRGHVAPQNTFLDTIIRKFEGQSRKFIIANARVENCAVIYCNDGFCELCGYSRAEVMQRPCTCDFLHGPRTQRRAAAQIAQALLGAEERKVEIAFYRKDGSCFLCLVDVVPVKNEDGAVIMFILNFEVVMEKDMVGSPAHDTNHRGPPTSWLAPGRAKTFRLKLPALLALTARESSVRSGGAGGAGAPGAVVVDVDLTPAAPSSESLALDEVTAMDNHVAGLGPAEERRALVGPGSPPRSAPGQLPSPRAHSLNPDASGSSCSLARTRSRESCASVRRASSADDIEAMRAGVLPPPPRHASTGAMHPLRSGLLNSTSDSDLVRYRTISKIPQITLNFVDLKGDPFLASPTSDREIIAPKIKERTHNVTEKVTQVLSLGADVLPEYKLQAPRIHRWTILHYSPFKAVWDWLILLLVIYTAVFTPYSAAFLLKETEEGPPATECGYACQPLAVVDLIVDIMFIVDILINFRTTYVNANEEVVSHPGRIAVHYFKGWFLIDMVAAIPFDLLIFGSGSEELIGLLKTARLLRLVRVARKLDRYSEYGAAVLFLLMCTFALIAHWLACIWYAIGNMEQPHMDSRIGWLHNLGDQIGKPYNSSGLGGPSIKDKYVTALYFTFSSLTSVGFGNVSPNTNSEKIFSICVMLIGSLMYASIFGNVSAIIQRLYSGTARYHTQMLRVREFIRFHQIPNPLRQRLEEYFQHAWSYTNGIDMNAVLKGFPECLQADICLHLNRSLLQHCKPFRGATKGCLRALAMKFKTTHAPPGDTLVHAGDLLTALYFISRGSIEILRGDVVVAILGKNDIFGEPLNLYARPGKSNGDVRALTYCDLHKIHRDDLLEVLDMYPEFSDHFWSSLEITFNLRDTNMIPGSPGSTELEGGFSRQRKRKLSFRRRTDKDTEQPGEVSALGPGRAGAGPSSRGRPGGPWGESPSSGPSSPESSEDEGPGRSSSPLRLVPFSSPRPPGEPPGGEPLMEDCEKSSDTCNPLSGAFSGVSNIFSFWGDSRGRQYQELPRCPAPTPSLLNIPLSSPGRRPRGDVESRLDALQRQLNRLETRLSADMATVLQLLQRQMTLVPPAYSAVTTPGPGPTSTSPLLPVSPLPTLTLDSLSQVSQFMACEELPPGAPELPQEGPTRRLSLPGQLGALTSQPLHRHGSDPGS

SMILES	hERG current change (%, negative = inhibition) at 10uM [%]
CS(=O)(=O)Cc1ccc(C(=O)Nc2cccc(-c3nc4ccccc4[nH]3)c2)cc1	7.22
Cc1occc1-c1nnc(SCC(=O)N2CCN(c3ccc(F)cc3)CC2)n1C	-58.5
Cc1ccc(NC(=O)/C(=C\C=C\c2ccccc2)NC(=O)c2ccccc2)cc1	19.4
C#CCN1C(=O)C(O)(CC(=O)/C=C/C=C/c2ccccc2)c2ccccc21 (stereo not drawn)	21.6
CCOC(=O)c1cnc2c(Cl)c(Cl)ccc2c1NCCN1CCOCC1.Cl	14.3
Cc1ccc2[nH]c3c(=O)n(CC(=O)NCCc4ccc(Cl)cc4)ncc3c2c1	7.74
CCOC(=O)c1c(NC(=O)/C=C/C(=O)O)sc(C)c1-c1ccc(Cl)cc1	13.8
Brc1ccc(-c2nnc(-c3ccccc3)o2)o1	-20.6
COc1ccc(/C=C/C(=O)NCCCc2ccccc2)cc1OC	-5.33
CC(=O)c1ccc(S(=O)(=O)NCCC(=O)N2CCN(c3ccccn3)CC2)cc1	-23.6
CN(c1ccccc1)S(=O)(=O)c1ccc(NC(=O)COc2ccccc2)cc1	-17.3
O=C(Oc1ccccc1)c1ccccc1OS(=O)(=O)c1ccccc1	2.52
CCOc1ccc(C2c3[nH]c4ccccc4c3CCN2C(=O)Cn2cncn2)cc1 (stereo not drawn)	-15
Cc1nc(C)c(C)nc1C	13.1
Fc1ccc(C2CCCN2Cc2nc(CC3CC3)no2)cc1 (stereo not drawn)	4.07
Cc1ccc(S(=O)(=O)c2cc3c(=O)n4ccccc4nc3n(C3CCCCC3)c2=N)cc1	-5.93
O=C(c1ccc(F)cc1)N1CCCC(C(=O)N2CCN(c3ccccc3)CC2)C1 (stereo not drawn)	13.8
CS(=O)(=O)N(CC(=O)Nc1ccccc1F)C1CCCCC1	10.6
CCOC(=O)C1CCCN(Cc2ccc(OCc3ccccc3)c(OC)c2)C1.O=C(O)C(=O)O (stereo not drawn)	-62.2
CN(C)S(=O)(=O)n1cnc(-c2ccccc2)c1-c1ccccc1	12.3
Fc1ccc(NC(=S)NC2CC3CCCC(C2)N3Cc2cccs2)cc1 (stereo not drawn)	-59.5
Cc1nn(CC(=O)NC2CCCCC2)c(=O)c2cccn12	6.69
CCCc1nc(C)cc(N2CCN(c3ccccc3)CC2)n1.Cl	-51.7
O=C(Nc1nc2ccccc2s1)c1cc2c(s1)-c1ccccc1OC2	3.59
